Source: PubChem BioAssay AID624296 (National Center for Advancing Translational Sciences (NCATS), 2012)
Among all 350,000 compounds or so, about 9,900 (2.8%) were called active. Inconclusive results, whose numbers are uncertain, are shown with a selection of clear calls. Calls follow the shape of the dose curve; as a rule, active = well fitted activation curve with a large enough effect; inconclusive = small, poorly fitted or top-dose-only effect; inactive = no such curve, though single readings can be large or run the other way. No potency is given beside an inconclusive call; the fits are too rough.
Potency is read from the fitted curve at half-maximal effect; tags tell the direction and shape of the fitted curve.

Experiment: A quantitative high throughput screen for small molecules that induce DNA re-replication in MCF 10a normal breast cells. Also: nearly all actives have a fitted effect of over 50% in size. As to activity, positive = re-replication: % of control where 0% means no effect.
Settings: MCF 10A DNA re-replication, Hoechst nuclear intensity, 48 h; activity, positive = re-replication: at 46.1 µM (top of the series)
In the case of `CSc1ccccc1C(=O)C1CCCN(Cc2cnn(-c3ccccc3)c2)C1` (stereo unspecified), the Potency is reported as inconclusive [activator, partial curve, poor fit]. With `OC(CN1CCCCC1)Cn1c2ccccc2c2cc(Br)ccc21` (stereo unspecified) the Potency was inconclusive [activator, partial curve, poor fit]. In the case of `CCCc1cc(CN2CCOCC2)c(O)c(CN2CCOCC2)c1O`, the Potency is reported as active: 14.6 µM. With `CC(C)N(Cc1ccccc1)C(=O)CN1C(=O)NC(Cc2ccccc2)(c2ccccc2)C1=O` (stereo unspecified) the Potency was inconclusive [activator, partial curve, poor fit]. With `CC(C)(C)c1ccc(/C=N/NC(=O)C(=O)NCCCN2CCOCC2)cc1` the Potency was inconclusive [activator, partial curve, poor fit]. In the case of `COc1ccc(/C=C2\Sc3ccc(C(=O)N4CCOCC4)cc3N(C)C2=O)cc1`, the Potency is reported as inconclusive [activator, single point]. With `CCOC(=O)c1c(-c2ccc(C)cc2)cn2ccccc12` the Potency was inconclusive [activator, partial curve, poor fit]. For `Cc1cccc(C)c1NC(=O)CN1C(=O)NC(C)(C2CC2)C1=O` (stereo unspecified), the “activity, positive = re-replication” value was inactive: -2.83%. For `O=c1c2cc(N3CCOCC3)ccc2[nH]c(=S)n1Cc1ccco1`, the Potency was inconclusive [activator, single point]. With `COc1cc(/C=C/C(=O)OCc2cn3cc(Cl)ccc3n2)ccc1O` the Potency was active: 10.3 µM. For `COc1ccc2oc(=O)c(-c3nc(C)cs3)cc2c1`, the “activity, positive = re-replication” value was inactive: -0.0195%. For `CCN(CCCNC(=O)CC1Oc2ccc(C)cc2NC1=O)Cc1ccccc1` (stereo unspecified), the Potency was inconclusive [activator, single point]. In the case of `CC1CCCC(NC(=S)NC(=O)c2ccccc2Br)C1C` (stereo unspecified), the Potency is reported as inconclusive [activator, single point]. In the case of `COc1cc(C(=O)NCCc2ccc(F)cc2)ccc1OCC(=O)N1CCOCC1`, the Potency is reported as inconclusive [activator, partial curve, poor fit]. With `CCCOC(c1ccccc1)(c1ccc(C(F)(F)F)cc1)C(Oc1nc(C)cc(C)n1)C(=O)O` (stereo unspecified) the “activity, positive = re-replication” value was inactive: 2.58%. In the case of `Cc1ccccc1C(=O)OCC(=O)N(C)c1ccccc1`, the “activity, positive = re-replication” value is reported as inactive: -0.597%. With `O=C1NN(c2ccccc2)C(=O)/C1=C\c1cccc(OC(=O)c2cccs2)c1` the Potency was inconclusive [activator, partial curve, poor fit]. In the case of `CCN(CC)C(=O)[C@H]1C[C@H](CC(=O)NCc2cccc(C(F)(F)F)c2)C(=O)N2CCc3c([nH]c4ccc(Cl)cc34)[C@]12C`, the Potency is reported as inconclusive [activator, single point]. For `CCCCC1(Cc2ccc(OC)c([N+](=O)[O-])c2)C(=O)N(c2ccccc2)N(c2ccccc2)C1=O`, the Potency was inconclusive [activator, partial curve, poor fit]. For `O=C(Nc1ccccc1-c1nc2ccccc2[nH]1)c1sc2ccccc2c1Cl`, the “activity, positive = re-replication” value was inactive: 2.3%. For `CC1Cc2ccccc2N1C(=O)CSc1nnc(-c2ccc(S(=O)(=O)N3CCCC3)cc2)o1` (stereo unspecified), the “activity, positive = re-replication” value was inactive: 1.76%. With `Nc1nc(SCC(=O)Nc2cccc(Oc3ccccc3)c2)n[nH]1` the “activity, positive = re-replication” value was inactive: 27.8%. In the case of `Cc1nn(Cc2c(Cl)cccc2Cl)c(C)c1NC(=O)c1cc(C(C)C)on1`, the Potency is reported as inconclusive [activator, single point]. In the case of `CCc1ccc2nc(SCC(=O)N(CC)CC)c(C#N)cc2c1`, the Potency is reported as inconclusive [activator, full curve]. With `O=c1cc(CN2CCN(c3cccc(Cl)c3)CC2)c2cc(O)c(-c3ccccc3)cc2o1` the Potency was inconclusive [activator, single point]. With `C/C(=N/NC(=O)c1ccc2c(c1)OCO2)c1ccc(NC(=O)c2ccc(F)cc2)cc1` the “activity, positive = re-replication” value was inactive: -0.491%. For `CC(C)(C)C1CCc2sc(C(=O)NNC(=O)CCl)cc2C1` (stereo unspecified), the Potency was inconclusive [activator, single point]. In the case of `CCOC(=O)C1CCC(CNCc2ccc(Cl)cc2)CC1` (stereo unspecified), the Potency is reported as inconclusive [activator, partial curve]. For `O=C(c1ccc(Cl)cc1)c1c[nH]c(C(=O)NNc2cccc(Cl)n2)c1`, the Potency was inconclusive [activator, single point]. For `O=C(CSc1nc(C(F)(F)F)cc(=O)[nH]1)NCc1ccc2c(c1)OCO2`, the “activity, positive = re-replication” value was inactive: 0.558%. In the case of `CN(C)c1ccccc1C(=O)N1CCCC(C(=O)c2ccc3ccccc3c2)C1` (stereo unspecified), the Potency is reported as inconclusive [activator, partial curve, poor fit]. For `COc1ccc(NC(=O)c2cc(-c3ccccc3O)n[nH]2)cc1Cl`, the Potency was inconclusive [activator, single point]. For `CCCNC(=S)N1CCN(c2nc(-c3ccc(C)cc3)cs2)CC1`, the Potency was inconclusive [activator, single point]. In the case of `CCN(CC)Cc1c(O)ccc2c(=O)c(-c3ccc(Cl)cc3)coc12`, the Potency is reported as inconclusive [activator, single point]. In the case of `COc1ccc(NC(=O)c2nc[nH]c2C(=O)N2CCN(c3ccccc3)CC2)cc1`, the “activity, positive = re-replication” value is reported as inactive: -3.71%. With `OC(CN1CCN(c2cccc(Cl)c2)CC1)c1ccccc1` (stereo unspecified) the Potency was inconclusive [activator, single point]. In the case of `COc1cccc(-c2cc(C(=O)Nc3ccncc3)c3ccccc3n2)c1`, the Potency is reported as inconclusive [activator, single point]. For `O=C(Nc1cccc(Cl)c1N1CCOCC1)c1ccc2c(c1)OCCO2`, the Potency was inconclusive [activator, partial curve, poor fit]. With `CC(c1cccs1)N(Cc1ccco1)C(=S)Nc1ccccc1Cl` (stereo unspecified) the Potency was inconclusive [activator, single point]. In the case of `N#Cc1c(NC(=O)CSc2nnc(-c3ccccc3)o2)sc2c1CCCC2`, the Potency is reported as active: 5.8 µM. For `CCCOc1ccc(C(=O)N2CCN(c3ccc(NC(=O)CC)cc3Cl)CC2)cc1`, the Potency was inconclusive [activator, single point]. With `Cc1ccc(Cn2c(=N)n(CC(O)COc3ccccc3)c3ccccc32)cc1` (stereo unspecified) the “activity, positive = re-replication” value was inactive: 11.8%. For `Cc1cc(=O)oc2cc(OCC3CC(c4ccccc4)=NO3)ccc12` (stereo unspecified), the Potency was active: 4.11 µM. For `CCN(CCNCC(O)COCc1ccc(Cl)cc1)c1cccc(C)c1` (stereo unspecified), the “activity, positive = re-replication” value was inactive: 62.9%. With `Cc1cccc(N(C(=O)c2snc(C(N)=O)c2N)C(C(=O)NC2CCCC2)c2ccco2)c1` (stereo unspecified) the Potency was inconclusive [activator, single point]. In the case of `CCOC(=O)C1=C(COC(=O)c2ccccc2[N+](=O)[O-])NC(=O)NC1C` (stereo unspecified), the “activity, positive = re-replication” value is reported as inactive: 0.626%. With `CN1C(=S)SC(N(O)C(=O)Nc2ccc(Cl)c(Cl)c2)C1(C)C` (stereo unspecified) the Potency was inconclusive [activator, single point]. In the case of `Cc1c(C(=O)Nc2cccc(Cl)c2)c2ccccn2c1CCc1ccncc1`, the Potency is reported as active: 7.31 µM. With `CCCOC(=O)CSC1=C(C#N)C(c2ccc3c(c2)OCO3)CC(=O)N1` (stereo unspecified) the Potency was inconclusive [activator, single point]. With `Cc1ccccc1OCCN1C(=O)C(=O)c2cccc(C)c21` the Potency was inconclusive [activator, single point]. In the case of `CN(C(=O)c1cccc(COc2ccc(Cl)cc2Cl)c1)c1ccccc1`, the Potency is reported as inconclusive [activator, single point]. For `COc1cc(NC(=O)C2CCCN2S(=O)(=O)c2cccc3cccnc23)cc(OC)c1OC` (stereo unspecified), the Potency was inconclusive [activator, single point]. In the case of `CCCC(=O)Nc1nnc(S(=O)(=O)N(CC(C)C)c2ccccc2)s1`, the “activity, positive = re-replication” value is reported as inactive: 21.7%. In the case of `CN(C)C(=S)SCC(=O)NC(=O)NC(C)(C)C`, the “activity, positive = re-replication” value is reported as inactive: 6.46%. With `CCCCCC1=CCC/C1=N\NC(=O)c1ccc2c(c1)OCO2` the Potency was inconclusive [activator, partial curve, poor fit]. In the case of `O=C(NCc1ccc(F)cc1)N1CCN(C(=O)c2ccccc2)CC1`, the “activity, positive = re-replication” value is reported as inactive: -2.63%. With `CCn1c(COc2ccc(C)cc2)nc2ccccc21` the “activity, positive = re-replication” value was inactive: 13.1%. In the case of `CNC(=O)NC(=O)COC(=O)c1ccc(-n2c(C)ccc2C)cc1`, the Potency is reported as inconclusive [activator, partial curve, poor fit]. In the case of `O=c1cc(C=NNc2ccc([N+](=O)[O-])cc2)[nH]c(=O)[nH]1`, the “activity, positive = re-replication” value is reported as inactive: -5.28%. For `O=C(CNC(=O)c1ccncc1)N/N=C/c1cc(Br)ccc1O`, the “activity, positive = re-replication” value was inactive: -0.0678%. With `Fc1cccc(-c2cc3nc4c(c(N5CCOCC5)n3n2)CCCC4)c1` the “activity, positive = re-replication” value was inactive: -2.69%. With `CSc1ccc(COC(=O)c2cc([N+](=O)[O-])ccc2N2CCOCC2)cc1` the Potency was inconclusive [activator, full curve, poor fit]. In the case of `N#Cc1ccc(OCC(O)CN2CCC(C(O)(c3ccccc3)c3ccccc3)CC2)cc1` (stereo unspecified), the Potency is reported as inconclusive [activator, partial curve, poor fit]. In the case of `CSc1ncccc1C(=O)OCC(=O)NCc1cccs1`, the Potency is reported as inconclusive [activator, single point]. With `Cc1cc(C(=O)CCl)c(C)n1CC1COc2ccccc2O1` (stereo unspecified) the Potency was inconclusive [activator, single point]. For `CCOC(=O)c1sc(=S)n(C)c1NC(=O)c1cccc(Br)c1`, the Potency was inconclusive [activator, single point]. In the case of `CCN1CCN(C2=C(Cl)C(=O)N(Cc3ccccc3)C2=O)CC1`, the “activity, positive = re-replication” value is reported as inactive: -5.26%. For `CC(C)(C)OC(=O)N1CCC(c2c(C(=O)NC3CC3)cnn2-c2ccc(Cl)cc2)CC1`, the “activity, positive = re-replication” value was inactive: 6.8%. In the case of `O=C(C1CCN(Cc2ccc(F)cc2)CC1)N(CCO)Cc1ccccc1`, the “activity, positive = re-replication” value is reported as inactive: 15.2%. With `CC1CCc2c(C(=O)NCc3ccccn3)csc2C1` (stereo unspecified) the “activity, positive = re-replication” value was inactive: 1.45%. In the case of `[O-][n+]1c2cc(C(F)(F)F)ccc2c2n1CCN=C2c1ccc(Cl)cc1`, the Potency is reported as inconclusive [activator, single point].
